The structures appear in SMILES notation. The campaign covered roughly 310,000 compounds. About 2,200 (0.71%) showed an effect of 50% or more. The effect is printed as a negative number. The list shows a part of the results.

Consider 44 compounds from paper PMC4336329 (PLoS ONE, 2015).

In the test the target is human ether-à-go-go-related gene (hERG) potassium channel (human, UniProt Q12809). Description: primary screen, population patch clamp on CHO cells stably expressing hERG.
human ether-à-go-go-related gene (hERG) potassium channel, sequence (Q12809 whole entry, looked up): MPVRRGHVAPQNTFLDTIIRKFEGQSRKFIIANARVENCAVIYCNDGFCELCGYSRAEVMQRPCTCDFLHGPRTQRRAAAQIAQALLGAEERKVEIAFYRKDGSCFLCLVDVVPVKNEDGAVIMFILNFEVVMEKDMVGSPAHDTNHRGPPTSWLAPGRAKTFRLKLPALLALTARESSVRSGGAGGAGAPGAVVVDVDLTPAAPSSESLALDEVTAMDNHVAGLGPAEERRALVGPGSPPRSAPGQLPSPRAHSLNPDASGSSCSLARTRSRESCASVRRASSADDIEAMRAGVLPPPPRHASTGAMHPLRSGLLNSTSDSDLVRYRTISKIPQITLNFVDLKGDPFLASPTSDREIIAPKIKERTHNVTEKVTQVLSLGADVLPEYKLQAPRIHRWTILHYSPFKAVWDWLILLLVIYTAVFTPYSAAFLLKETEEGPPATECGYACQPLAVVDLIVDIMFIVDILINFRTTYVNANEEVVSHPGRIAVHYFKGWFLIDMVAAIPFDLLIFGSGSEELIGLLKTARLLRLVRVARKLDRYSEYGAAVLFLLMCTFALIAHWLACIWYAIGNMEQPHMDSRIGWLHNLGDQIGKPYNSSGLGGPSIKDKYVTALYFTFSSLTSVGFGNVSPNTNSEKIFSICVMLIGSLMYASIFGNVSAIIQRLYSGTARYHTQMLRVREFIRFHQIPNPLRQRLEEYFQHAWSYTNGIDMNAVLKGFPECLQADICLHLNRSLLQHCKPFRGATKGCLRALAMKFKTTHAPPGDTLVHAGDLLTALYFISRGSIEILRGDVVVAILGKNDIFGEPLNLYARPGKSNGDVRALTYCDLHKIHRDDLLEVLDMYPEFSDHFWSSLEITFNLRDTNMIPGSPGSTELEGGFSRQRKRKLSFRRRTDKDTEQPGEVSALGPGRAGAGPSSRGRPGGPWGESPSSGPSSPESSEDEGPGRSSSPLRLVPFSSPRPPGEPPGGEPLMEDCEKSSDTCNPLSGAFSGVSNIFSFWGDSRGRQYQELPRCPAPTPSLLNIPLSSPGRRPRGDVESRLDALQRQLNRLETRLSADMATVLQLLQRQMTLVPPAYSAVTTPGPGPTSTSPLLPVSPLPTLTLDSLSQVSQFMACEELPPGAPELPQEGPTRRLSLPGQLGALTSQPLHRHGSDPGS
Consider `CCc1nc(C(N)=O)c2[nH]c(=O)n(-c3ccccc3F)c2n1`, for which the “hERG current change (%, negative = inhibition) at 1uM” value turned out to be 22.7%.
The same measure for `Cc1ccc(C(=O)O/N=C(\N)c2cccc([N+](=O)[O-])c2)cc1`: 5.21%; for `Cc1ccc(S(=O)(=O)N(CC(=O)N2CCOCC2)c2ccc(C(C)C)cc2)cc1`: 8.37%.
Turning to `COc1ccc(COC(=O)C2CC(=O)N(Cc3ccc(C)cc3)C2)cc1` (centres unmarked), the “hERG current change (%, negative = inhibition) at 1uM” value is -12.4%.
With `CCc1ccccc1N(C(C)=O)c1nc(CCl)cs1` the figure was 10.3%.
With `O=C(CSc1nnc(NC(=O)c2ccccc2)s1)NC1CCCC1` the figure was 2.14%; with `CCCCN(C(=O)c1[nH]c(C)c(C(C)=O)c1C)c1c(N)n(CCCC)c(=O)[nH]c1=O`, 2.19%; with `CCC(=O)c1c[nH]c(C(=O)NCc2cccs2)c1`, 6.89%.
Turning to `CCc1ccc(-c2nc(SCC(=O)N(C)C3CCS(=O)(=O)C3)n[nH]2)cc1` (centres unmarked), the “hERG current change (%, negative = inhibition) at 1uM” value was 5.78%.
With `CN1CCN(c2ccc(Cl)cc2NC(=O)/C=C/c2ccc(F)cc2)CC1` the figure was -25.7%; with `COc1cccc(-c2nnc(SCc3nc4ccccc4s3)n2C)c1`, -3.5%; with `O=[N+]([O-])c1ccc2nc(-c3ccc(Cl)cc3)n(OCc3ccccc3)c2c1`, 19.2%.
Consider `Cn1cccc1C(=O)NC1CCCCCC1`, for which the “hERG current change (%, negative = inhibition) at 1uM” value is given as 5.97%.
The same measure for `CC(C)(C)Sc1ccc2nc3c(n2c1)CCCC3.Cl`: -0.262%; for `CCCC(=O)c1cc(CP(=O)(OCC)OCC)oc1C`: 9.57%.
With `O=C(c1ccco1)N1N=C(c2cccs2)CC1c1ccco1` (centres unmarked) the figure was -2.18%.
Consider `CCC(=O)Nc1cccc(Br)c1`, for which the “hERG current change (%, negative = inhibition) at 1uM” value came out at 5.58%.
With `Brc1csc(/C=N/Nc2nc3ccccc3s2)c1` the figure was 9.85%; with `Cc1ccc(/C(N)=N/OC(=O)CCC2CCCC2)cc1`, 8.87%; with `COc1ccccc1NC(=O)c1ccc(S(=O)(=O)N2CCOCC2)cc1`, 8.61%.
With `O=[N+]([O-])c1ccc(N2CCN(Cc3ccccc3)CC2)s1` the figure was -6.32%.
For the compound `Cc1ccc(O)c(NC(=S)NC(=O)c2ccccc2Cl)c1`, the “hERG current change (%, negative = inhibition) at 1uM” value stood at 12.3%.
With `Cc1cc(C)c(S(=O)(=O)N2CCCOC2CNC(=O)C(=O)NCc2cccs2)c(C)c1` (centres unmarked) the figure was 16.1%.
The same measure for `COC/C=C/C1=CC2=CC(=O)C(C)(OC(=O)c3cnc4ccccc4n3)C(=O)C2=CN1c1ccccc1` (centres unmarked): 9.18%; for `Br.CCn1c2c(c(=N)c3c1CCC3)CCCC2`: 4.22%; for `O=C(Nc1ccc(S(=O)(=O)Nc2cnc3ccccc3n2)cc1)c1ccc(Cl)cc1Cl`: 6.22%.
Regarding `COc1ccc(NC(=O)CSc2c3c(nc4cc(Cl)ccc24)CCCC3)cc1OC`, the “hERG current change (%, negative = inhibition) at 1uM” value is reported as 11.5%.
On to `O=C(/C=C/c1ccccc1)NC(=S)N1C[C@H]2C[C@H](C1)c1cccc(=O)n1C2`, for which the “hERG current change (%, negative = inhibition) at 1uM” value is -4.92%.
`O=C(COc1cccc2cccnc12)NNC(=O)Nc1ccccc1`: the “hERG current change (%, negative = inhibition) at 1uM” value is listed as 7.1%.
With `NC(=O)[C@@H]1CCCN1C(=O)c1ccc2oc(CCc3ccccc3)nc2c1`, the “hERG current change (%, negative = inhibition) at 1uM” value is given as 7.92%.
The same measure for `Cc1c(C(=O)N2CCCC2)c(S(=O)(=O)NCCc2ccccc2)c(C)n1C`: 8.05%.
The same measure for `CCC(=O)N1CCc2cc(S(=O)(=O)CCC(=O)O)ccc21`: 11.4%.
With `Cc1ccc(NC(=O)N2CCC(NC(=O)c3ccco3)CC2)cc1` the figure was 14.3%.
As to `Cc1cc[n+]2n1CC(O)C2.[Cl-]` (centres unmarked), the “hERG current change (%, negative = inhibition) at 1uM” value is listed as 8.46%.
On to `Cc1cc(C)c2oc(C(=O)N3CCN(Cc4ccccc4)CC3)cc(=O)c2c1`, for which the “hERG current change (%, negative = inhibition) at 1uM” value came to 4.72%.
With `COc1ccccc1N(C)S(=O)(=O)c1ccc(C(=O)Nc2nc(C)cs2)cc1` the figure was 7.75%.
The same measure for `CC(OC(=O)CSc1ccc([N+](=O)[O-])cc1)C(=O)NC1CC1` (centres unmarked): 2.97%; for `O=C(Nc1ccc2ccccc2c1)c1ccc(Br)o1`: 12.9%.
In the case of `COC(=O)c1ccccc1NC(=S)NC(NC(=O)COc1ccccc1)C(Cl)(Cl)Cl` (centres unmarked), the “hERG current change (%, negative = inhibition) at 1uM” value is recorded as 8.45%.
As to `Cc1ccc(NC(=O)Nc2nnc(-c3ccccc3F)s2)cc1`, the “hERG current change (%, negative = inhibition) at 1uM” value is 13.3%.
With `COc1ccc2c(C(=O)c3ccc(Cl)cc3)n(CCCC(N)=O)[n+]([O-])c2c1`, the “hERG current change (%, negative = inhibition) at 1uM” value was -6.19%.
The same measure for `CC(=O)Nc1sc(C)c(C)c1C(=O)OCC(=O)Nc1cc(S(=O)(=O)N2CCCCC2)ccc1Cl`: 6.72%; for `CCN(CC)C(=O)COc1ccc2c(c1)C(=O)CC(C)(C)O2`: 16.4%; for `Cc1nc(Nc2ccccc2)c2oc3ccc(Cl)cc3c2n1`: 7.43%.
